In article PMC12040169 (PLOS Biology, 2025):
This is one part of the list.

Test system: T1, C. trachomatis L2/434/Bu expressing GFP (CTL2-GFP)
T1 construct: L2/434/Bu GFP intracellular growth in HeLa cells
Parameters: species or system HeLa; C. trachomatis total inclusion area by high-content imaging, normalised to DMSO
Conditions: total inclusion area; 28.5 h, 10 µM; inhibitor
How it was run: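 High-content imaging followed the bulk GFP/resorufin measurement: fixed, Hoechst-stained cells were scored for GFP inclusions and host nuclei per well. Total inclusion area and count served as growth proxies, nuclei number as the viability proxy. MIC calculation matched the bulk assay.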

| Compound | % of control remaining |
| --- | --- |
| CS(=O)(=O)c1cccc(C(=O)Nc2cnc(-c3ccc(F)c(Cl)c3)c(-c3cccnc3)n2)c1 [CBK036779] | 91.2973 |
| CCn1c(=O)n(CC(=O)NCc2cccs2)c2cccnc21 [CBK283811] | 100.359 |
| Cc1ccc(OCCn2c(=N)n(CCN3CCOCC3)c3ccccc32)cc1 [CBK269085B] | 84.622 |
| NS(=O)(=O)c1ccc(NC(=S)NC(=O)/C=C/c2ccc([N+](=O)[O-])cc2)cc1 [CBK262176] | 106.222 |
| COc1cc(C(=O)O)ccc1Oc1cnn(-c2ccccc2)c(=O)c1Cl [CBK287032] | 85.1392 |
| Cc1ccc(-c2nc3ccccc3[nH]2)cc1NC(=O)COc1cccc([N+](=O)[O-])c1 [CBK265932] | 140.41 |
| O=C(CCc1cccnc1)NC1Cc2ccccc2C1 [CBK200352] | 94.4408 |
| Cc1cc(=O)n(CC(=O)NC(C)c2ccccn2)c2ccccc12 (stereo not shown) [CBK281820] | 127.931 |
| CC(C)(C)OC(=O)NC1CCC(NCc2cc(F)cc(F)c2)CC1 (stereo not shown) [CBK056689] | 88.3829 |
| Cc1ccc(NC(=O)C2CCCCC2C(=O)O)cc1Cl (stereo not shown) [CBK286938] | 84.0197 |
| O=C1NCC2(CCCN(Cc3ccccc3F)C2)Oc2ccccc21 (stereo not shown) [CBK284901] | 107.971 |
| CCCn1ccnc1-c1cn(Cc2cc(C(C)(C)C)n[nH]2)nn1 [CBK306791] | 69.2467 |
| C[C@@H](c1ccccc1)n1c(=O)[nH]c2ncc(-c3cccc(C(=O)NCCN(C)C)c3)nc21 [CBK064376] | 124.673 |
| Cc1ccn(CCNC(=O)CC2CC3CCC2C3)n1 (stereo not shown) [CBK282068] | 91.722 |
| O=C(O)CC1C(=O)NCCN1Cc1ccccc1Cl (stereo not shown) [CBK270114] | 92.4773 |
| CCCC(=O)c1ccc(S(=O)(=O)N2CCN(Cc3cccc(Br)c3)CC2)cc1 [CBK063146] | 70.3945 |
| CC(C)(C)c1cc(CCCOC(=O)CNC2CCCCC2)cc(C(C)(C)C)c1O [CBK261998] | 95.9762 |
| CC(C)c1cc(C(=O)NC2CCOc3ccccc32)no1 (stereo not shown) [CBK283065] | 78.7145 |
| NC(=O)c1cccc(OCCOc2nccnc2N2CCNCC2)c1 [CBK014338G] | 80.972 |
| COc1ccc(CNC(=O)C2CC(=O)N(c3ccc(O)cc3)C2)cc1 (stereo not shown) [CBK270125] | 86.3317 |
| CC(C)N(C(=O)CN1C(=O)N2CCCN=C2c2ccccc21)C(C)C [CBK284400] | 88.506 |
| Cc1cc(C)n(CCCNC(=O)Nc2cccnc2)n1 [CBK304820] | 84.1878 |
| O=C1CCC(C(=O)Nc2cnc(-c3cccc(C(F)(F)F)c3)c(-c3cccnc3)n2)=NN1 [CBK036950] | 84.3106 |
| Cc1cc(CNC(=O)C(C)n2cnc3ccccc32)on1 (stereo not shown) [CBK282196] | 97.1441 |
| O=C(O)CCc1ccc(-c2cn3ccnc3c(N3CCOCC3)n2)cc1 [CBK066166] | 122.286 |
| CS(=O)(=O)c1ccccc1C(=O)n1ccn(-c2ccc(Oc3ccccc3)cc2)c1=O [CBK106647] | 109.316 |
| Cc1ccc(Cn2c(CN3CCOCC3)nc3c2c(=O)n(C)c(=O)n3C)cc1 [CBK269583] | 74.6227 |

| Compound | % of control remaining |
| --- | --- |
| O=C(NCCCn1ccnn1)c1cccc(S(=O)(=O)N2CCCCC2)c1 [CBK304660] | 44.9295 |
| O=C(c1ccco1)N1CCC[C@H]1[C@H](O)c1nccs1 [CBK284286] | 68.2926 |
| c1ccc(CSc2nc3ccccc3s2)nc1 [CBK027737] | 54.2201 |
| O=S(=O)(NC1c2cccc3cccc(c23)C1Sc1ncccn1)c1ccc(Cl)cc1 (stereo not shown) [CBK264638] | 94.4288 |
| Oc1ccc(Cl)cc1/C=N/c1ccc(-c2cc(-c3ccc(/N=C/c4cc(Cl)ccc4O)cc3)ncn2)cc1 [CBK261626] | 98.369 |
| O=C(Nc1ccc(-c2c3ccccc3c(-c3ccc(NC(=O)c4cccc5ccccc45)cc3)c3ccccc23)cc1)c1cccc2ccccc12 [CBK261164] | 97.6707 |
| Clc1ccc(-c2cc(N3CCN(c4ccccn4)CC3)ncn2)cc1 [CBK091085] | 121.188 |
| CCOC(=O)N1CCC(NC(=O)N2CCN(C3CCN(C)CC3)CC2)CC1 [CBK156113] | 98.7163 |
| Clc1ccc(SCCCNCCN2CCOCC2)cc1 [CBK268603C] | 83.2391 |
| CC(=O)c1cccc(NC(=O)Nc2cccc(S(=O)(=O)N3CCOCC3)c2)c1 [CBK266996] | 103.307 |
| O=C(NC(=O)C1CCN(CCc2cccc(C(F)(F)F)c2)CC1)Nc1cccc2ccccc12 [CBK035070] | 89.3998 |
| O=C(c1cc(Br)cc2c1OCC2)N1CCCCC1 [CBK007109] | 93.8083 |
| CCC1(CC)OC(NC2CCCc3ccccc32)=NC1=O (stereo not shown) [CBK126555] | 75.7709 |
| O=C1c2cc(S(=O)(=O)NCc3ccco3)ccc2-c2ccc(S(=O)(=O)NCc3ccco3)cc21 [CBK262250] | 93.3263 |
| CN1CCN(CCCNC(=O)c2ccc(-c3ccoc3)nc2)CC1 [CBK156257] | 118.939 |
| NS(=O)(=O)c1ccc(NC(=S)NNC(=O)c2ccc(Br)o2)cc1 [CBK266972] | 107.917 |
| Cc1ccccc1Oc1ccccc1NC(=O)CN1CCCCC1 [CBK015781C] | 79.429 |
| COc1ccccc1N1CCN(C(=O)NCC2CCCCC2)CC1 [CBK155588] | 103.384 |
| CCOc1cc(NC2CCN(C(=O)NCC(F)F)CC2)ncn1 [CBK305485] | 76.408 |
| Cc1nc(-c2ccccc2)ncc1COC(=O)N1CCOCC1 [CBK200147] | 88.7298 |
| CCN(CC)C(=O)c1cccc(NC(=O)Cc2cn3ccsc3n2)c1 [CBK305353] | 44.2758 |
| C=CCOc1c(Br)cc(CNc2ccc(C(=O)O)cc2)cc1OC [CBK267202] | 56.1824 |
| Cc1ccc([N+](=O)[O-])cc1S(=O)(=O)Nc1ccc(O)c(Sc2nc3ccccc3s2)c1 [CBK266936] | 126.716 |
| COCc1nnc(Sc2cc(NC(C)C)ncn2)s1 [CBK093784] | 84.7996 |
| CC[C@H](Cn1ncc2ccccc2c1=O)NC(=O)C(C)(C)C [CBK284304] | 65.9143 |
| O=S(=O)(Nc1cnc2ccccc2c1)c1cccs1 [CBK043694] | 104.371 |
| CN(CC1(C)COC1)C(=O)c1ccc2c(c1)ncn2C1CC1 [CBK281718] | 101.559 |

| Compound | % of control remaining |
| --- | --- |
| O=C(CSc1ccc2ccccc2n1)NNC(=O)c1cccc([N+](=O)[O-])c1 [CBK262506] | 95.8979 |
| CCOC(=O)C1(NC(=O)C2(Oc3cccnc3C)CCNCC2)CCC1 [CBK306688] | 94.7179 |
| N#Cc1ccc(Oc2cccc(C(F)(F)F)c2)c(F)c1 [CBK002801] | 95.5807 |
| O=C1CN(C(=O)NC2CCc3ccccc32)CCN1 (stereo not shown) [CBK155878] | 99.1436 |
| Cc1nn(C)c(C)c1CCn1cncc1-c1ccc2c(c1)CC(C)N2C (stereo not shown) [CBK281788] | 117.123 |
| c1ccc(-c2ccc(Nc3ccc4c(c3)OCCO4)nc2)cc1 [CBK037802] | 95.8685 |
| O=C(O)c1cccc(NC(=O)c2ccc3c(c2)C(=O)N(Cc2cccnc2)C3=O)c1 [CBK265523] | 100.776 |
| NC(=O)COc1ccccc1O [CBK261029] | 101.584 |
| Cc1ccc(NC(=O)N2CCC(C(=O)O)CC2)cc1 [CBK156077] | 98.9852 |
| COCCn1c(SC2CCN(C)C2=O)nc2ccccc21 (stereo not shown) [CBK305131] | 53.9875 |
| Cc1nccn1CCC1CCN(C(=O)CC2CCCCO2)CC1 (stereo not shown) [CBK281974] | 86.4891 |
| Cn1c(COc2ccccc2)nnc1SCC(=O)c1ccc(-c2ccccc2)cc1 [CBK267426] | 99.2786 |
| CCCn1cc(C(CC(=O)O)C(=O)O)c2ccccc21 (stereo not shown) [CBK267345] | 111.963 |
| CC1(C(=O)O)NC(c2ccccc2O)C2C(=O)N(Cc3ccccc3)C(=O)C21 (stereo not shown) [CBK218007] | 97.2238 |
| Oc1cc(Cl)c(-c2ccccc2)nn1 [CBK022028] | 75.5939 |
| c1ccc2sc(CCCCc3nc4ccccc4s3)nc2c1 [CBK261248] | 107.974 |
| Cn1ccnc1C(O)C1CCN(C(=O)NCCc2cccc(F)c2)CC1 (stereo not shown) [CBK304657] | 52.5081 |
| O=C(c1ccccc1)N1C[C@@H]2CCCCN(Cc3cccnc3)[C@@H]2C1 [CBK285512] | 92.9805 |
| CN(C)CCN1CCN(c2ccc(-c3ccsc3)cn2)CC1 [CBK036915] | 109.765 |
| CN(C)c1cccc(-c2cncc(Nc3cccc(C(F)(F)F)c3)n2)c1 [CBK065786] | 119.739 |
| CCn1cc(NC(=O)NC2CCN(c3ncccc3C#N)CC2)c(C)n1 [CBK307213] | 50.1218 |
| O=C(c1n[nH]c2c1CCCC2)N1CC(=O)N(CCc2ccccc2)C(=O)C1 [CBK288110] | 134.712 |
| Cc1noc(C)c1NC(=O)N(Cc1ccc(-c2ccccc2)cc1)CC1CCNCC1 [CBK056721] | 93.521 |
| CCCn1ccnc1-c1cn(CCc2cc(O)nc(C)n2)nn1 [CBK306675] | 56.9356 |
| O=C(c1ccco1)N1CCN(C(=S)Nc2ccc(S(=O)(=O)Nc3ncccn3)cc2)CC1 [CBK267096] | 62.8953 |
